This is an account of results in patent US20250059278A1 (SICHUAN HUIYU PHARMACEUTICAL, published 2025).

Assay [1] has as its target T1, Human CD3 on Jurkat cells (human, UniProt P07766; P09693; P04234).
T1 construct: whole, on cells; also called Human CD3-expressing Jurkat cells; Jurkat (naturally expressing human CD3)
Description: flow cytometry on Jurkat cells.

Assay [2] has as its target T2, Human CD3εγ recombinant antigen (acrobiosystems, Cat. No. CDG-H52W5) (human, UniProt P07766 23-126; P09693 23-116).
T2 construct: Bought recombinant protein
The assay is described as follows: SPR chip (Carterra), antibody captured, antigen in flow.

Assay [3] has as its target T3, Monkey CD3 on cynomolgus HSC-F cells (cynomolgus monkey, UniProt Q95LI5 22-198; Q95LI7 23-181; Q95LI8 22-171).
T3 construct: whole, on cells; also called Monkey CD3-expressing cynomolgus HSC-F cells; cynomolgus monkey CD3-expressing HSC-F cells
T3 sequence (Q95LI5 22-198, chain 1 of 3): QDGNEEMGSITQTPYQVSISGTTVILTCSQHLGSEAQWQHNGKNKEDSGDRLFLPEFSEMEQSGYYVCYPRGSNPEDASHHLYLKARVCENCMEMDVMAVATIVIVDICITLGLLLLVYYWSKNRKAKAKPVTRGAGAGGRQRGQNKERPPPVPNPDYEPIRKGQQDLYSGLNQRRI
T3 sequence (Q95LI7 23-181, chain 2 of 3, further chain): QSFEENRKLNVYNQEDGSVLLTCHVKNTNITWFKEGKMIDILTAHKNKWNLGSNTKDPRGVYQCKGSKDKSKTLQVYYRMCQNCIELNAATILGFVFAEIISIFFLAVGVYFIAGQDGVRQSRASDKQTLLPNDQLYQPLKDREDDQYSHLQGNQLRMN
T3 sequence (Q95LI8 22-171, chain 3 of 3, further chain): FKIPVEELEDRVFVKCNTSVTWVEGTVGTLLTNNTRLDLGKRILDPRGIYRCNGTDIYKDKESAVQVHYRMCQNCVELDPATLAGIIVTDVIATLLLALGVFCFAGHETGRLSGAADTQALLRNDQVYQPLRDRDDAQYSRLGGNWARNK
Description: flow cytometry on HSC-F cells.

B1: CD3-MSLN bispecific antibody B24 (bispecific antibody, human IgG1, lambda)
heavy: EVQLVESGGGLVQPGGSLRLSCAASGFTFNTYAMNWVRQAPGKGLEWVARIRSKYNNYATYYADSVKGRFTISRDDSKSILYLQMNSLKTEDTAVYYCVRHSNFGRSYVSWFAYWGQGTLVTVSSASTKGPSVFPLAPSSKSTSGGTAALGCLVKDYFPEPVTVSWNSGALTSGVHTFPAVLQSSGLYSLSSVVTVPSSSLGTQTYICNVNHKPSNTKVDKKV[letters of human IgG1 Fc with changes omitted]GGGGSGGGGSEVQLVESGGGLVQAGESLRLSCAVSGNIGSIRHMGWHRQDPGKERELVATITTVGTTYYANFVKGRFTISRDNAKNTVYLQMNSLKPEDTGVYYCRATAHPTDYWGQGTQVTVSS
light: [letters of about 100 residues omitted][letters of about 100 residues omitted]
notes: [VH24]-[CH]-[L]-[3C6 VHH] with [VL-1]-[CL]
Turning to B1, in assay [1], the EC50 turned out to be 1.17 nM. Further, in assay [2], the Kd stood at 2.1 nM, the koff was 0.0014 s⁻¹ and the kon came to 660000 M⁻¹ s⁻¹. In addition, in assay [3], the EC50 came out at 0.239 nM.

B2: CD3-MSLN bispecific antibody B31 (bispecific antibody, human IgG1, lambda)
heavy: EVQLVESGGGLVQPGGSLRLSCAASGFTFNTYAMNWVRQAPGKGLEWVARIRSKYNNYATYYADSVKGRFTISRDDSKSILYLQMNNLKTEDTAVYYCVRHSNFGNSYVSWFEYWGQGTLVTVSSASTKGPSVFPLAPSSKSTSGGTAALGCLVKDYFPEPVTVSWNSGALTSGVHTFPAVLQSSGLYSLSSVVTVPSSSLGTQTYICNVNHKPSNTKVDKKV[letters of human IgG1 Fc with changes omitted]GGGGSGGGGSEVQLVESGGGLVQAGESLRLSCAVSGNIGSIRHMGWHRQDPGKERELVATITTVGTTYYANFVKGRFTISRDNAKNTVYLQMNSLKPEDTGVYYCRATAHPTDYWGQGTQVTVSS
light: [letters of about 100 residues omitted][letters of about 100 residues omitted]
notes: [VH31]-[CH]-[L]-[3C6 VHH] with [VL-1]-[CL]
For the molecule B2, the EC50 in assay [1] turned out to be 1.29 nM. For the same molecule, in assay [2], the Kd was 0.65 nM, the koff was 0.0018 s⁻¹ and the kon amounted to 2.7e+06 M⁻¹ s⁻¹. Also, the EC50 in assay [3] came out at 0.198 nM.

B3: CD3-MSLN bispecific antibody B25 (bispecific antibody, human IgG1, lambda)
heavy: EVQLVESGGGLVQPGGSLRLSCAASGFTFNTYAMNWVRQAPGKGLEWVARIRSKYNNYATYYADSVKDRFTISRDDSKSILYLQMNSLKTEDTAMYYCVRHGNFGNSRVSWFAYWGQGTLVTVSSASTKGPSVFPLAPSSKSTSGGTAALGCLVKDYFPEPVTVSWNSGALTSGVHTFPAVLQSSGLYSLSSVVTVPSSSLGTQTYICNVNHKPSNTKVDKKV[letters of human IgG1 Fc with changes omitted]GGGGSGGGGSEVQLVESGGGLVQAGESLRLSCAVSGNIGSIRHMGWHRQDPGKERELVATITTVGTTYYANFVKGRFTISRDNAKNTVYLQMNSLKPEDTGVYYCRATAHPTDYWGQGTQVTVSS
light: [letters of about 100 residues omitted][letters of about 100 residues omitted]
notes: [VH25]-[CH]-[L]-[3C6 VHH] with [VL-1]-[CL]
With B3, a half-maximal response in assay [1] (EC50) required 0.0973 nM. In assay [2], the Kd came out at 6.4 nM, the off-rate (koff) amounted to 0.0058 s⁻¹ and the kon was found to be 910000 M⁻¹ s⁻¹. For the same molecule, the response in assay [3] was half-maximal at 0.184 nM (EC50).

B4: CD3-MSLN bispecific antibody B34 (bispecific antibody, human IgG1, lambda)
heavy: EVQLVESGGGLVQPGGSLRLSCAASGFTFNTYAMNWVRQAPGKGLEWVARIRSKYNNYATYYADSVKGRFTISRDDSKSSLYLQMNNLKTEDTAVYYCVRHGNFKQSYVSWFAYWGQGTLVTVSSASTKGPSVFPLAPSSKSTSGGTAALGCLVKDYFPEPVTVSWNSGALTSGVHTFPAVLQSSGLYSLSSVVTVPSSSLGTQTYICNVNHKPSNTKVDKKV[letters of human IgG1 Fc with changes omitted]GGGGSGGGGSEVQLVESGGGLVQAGESLRLSCAVSGNIGSIRHMGWHRQDPGKERELVATITTVGTTYYANFVKGRFTISRDNAKNTVYLQMNSLKPEDTGVYYCRATAHPTDYWGQGTQVTVSS
light: [letters of about 100 residues omitted][letters of about 100 residues omitted]
notes: [VH34]-[CH]-[L]-[3C6 VHH] with [VL-1]-[CL]
In assay [1], B4 showed an EC50 of 2.82 nM. Also, in assay [2], the Kd was 7.4 nM, the koff came to 0.0035 s⁻¹ and the on-rate (kon) was found to be 470000 M⁻¹ s⁻¹. Also, the EC50 in assay [3] was determined as 0.324 nM.

B5: CD3-MSLN bispecific antibody B29 (bispecific antibody, human IgG1, lambda)
heavy: EVQLVESGGGLVQPGGSLRLSCAASGFTFNTYAMNWVRQAPGKGLEWVARIRSKYNNYATYYADSVKGRFTISRDDSKSILYLQMNSLKTEDTAMYYCVRHGNFPMSYVSWFAYWGQGTLVTVSSASTKGPSVFPLAPSSKSTSGGTAALGCLVKDYFPEPVTVSWNSGALTSGVHTFPAVLQSSGLYSLSSVVTVPSSSLGTQTYICNVNHKPSNTKVDKKV[letters of human IgG1 Fc with changes omitted]GGGGSGGGGSEVQLVESGGGLVQAGESLRLSCAVSGNIGSIRHMGWHRQDPGKERELVATITTVGTTYYANFVKGRFTISRDNAKNTVYLQMNSLKPEDTGVYYCRATAHPTDYWGQGTQVTVSS
light: [letters of about 100 residues omitted][letters of about 100 residues omitted]
notes: [VH29]-[CH]-[L]-[3C6 VHH] with [VL-1]-[CL]
Take B5: in assay [1], a half-maximal effect (EC50) was put at 0.505 nM. For the same molecule, in assay [2], the Kd is 3.6 nM, the koff came out at 0.0044 s⁻¹ and the kon was found to be 1.2e+06 M⁻¹ s⁻¹. Also, the EC50 in assay [3] amounted to 0.242 nM.

B6: CD3-MSLN bispecific antibody B27 (bispecific antibody, human IgG1, lambda)
heavy: EVQLVESGGGLVQPGGSLRLSCAASGFTFNTYAMNWVRQAPGKGLEWVARIRSKYNNYATYYADSVKGRFTISRDDSKSILYLQMNSLKTEDTAMYYCVRHANFGNSYVSWFASWGQGTLVTVSSASTKGPSVFPLAPSSKSTSGGTAALGCLVKDYFPEPVTVSWNSGALTSGVHTFPAVLQSSGLYSLSSVVTVPSSSLGTQTYICNVNHKPSNTKVDKKV[letters of human IgG1 Fc with changes omitted]GGGGSGGGGSEVQLVESGGGLVQAGESLRLSCAVSGNIGSIRHMGWHRQDPGKERELVATITTVGTTYYANFVKGRFTISRDNAKNTVYLQMNSLKPEDTGVYYCRATAHPTDYWGQGTQVTVSS
light: [letters of about 100 residues omitted][letters of about 100 residues omitted]
notes: [VH27]-[CH]-[L]-[3C6 VHH] with [VL-1]-[CL]
B6 registered an EC50 in assay [1] of 0.477 nM. In assay [2], the Kd amounted to 1.3 nM, the koff came out at 0.0018 s⁻¹ and the kon is 1.4e+06 M⁻¹ s⁻¹. Besides, it took 0.254 nM to reach a half-maximal effect in assay [3] (EC50).

B7: CD3-MSLN bispecific antibody B30 (bispecific antibody, human IgG1, lambda)
heavy: EVQLVESGGGLVQPGGSLRLSCAASGFTFNTYAMNWVRQAPGKGLEWVARIRSKYNNYATYYADSVKDRFTISRDDSKSILYLQMNSLKTEDTAMYYCVRHSNFGNGYVSWFAYWGQGTLVTVSSASTKGPSVFPLAPSSKSTSGGTAALGCLVKDYFPEPVTVSWNSGALTSGVHTFPAVLQSSGLYSLSSVVTVPSSSLGTQTYICNVNHKPSNTKVDKKV[letters of human IgG1 Fc with changes omitted]GGGGSGGGGSEVQLVESGGGLVQAGESLRLSCAVSGNIGSIRHMGWHRQDPGKERELVATITTVGTTYYANFVKGRFTISRDNAKNTVYLQMNSLKPEDTGVYYCRATAHPTDYWGQGTQVTVSS
light: [letters of about 100 residues omitted][letters of about 100 residues omitted]
notes: [VH30]-[CH]-[L]-[3C6 VHH] with [VL-1]-[CL]
B7: in assay [1], the EC50 is 0.304 nM. Also, in assay [2], the Kd amounted to 1.3 nM, the koff was 0.00085 s⁻¹ and the kon came to 650000 M⁻¹ s⁻¹. Moreover, in assay [3], it took 0.272 nM to reach a half-maximal effect (EC50).

B8: CD3-MSLN bispecific antibody B32 (bispecific antibody, human IgG1, lambda)
heavy: EVQLVESGGGLVQPGGSLRLSCAASGFTFNTYAMNWVRQAPGKGLEWVARIRSKYNNYATYYADSVKGRFTISRDDSKSSLYLQMNSLKTEDTAVYYCVRHSNFGNSRVSWFAYWGQGTLVTVSSASTKGPSVFPLAPSSKSTSGGTAALGCLVKDYFPEPVTVSWNSGALTSGVHTFPAVLQSSGLYSLSSVVTVPSSSLGTQTYICNVNHKPSNTKVDKKV[letters of human IgG1 Fc with changes omitted]GGGGSGGGGSEVQLVESGGGLVQAGESLRLSCAVSGNIGSIRHMGWHRQDPGKERELVATITTVGTTYYANFVKGRFTISRDNAKNTVYLQMNSLKPEDTGVYYCRATAHPTDYWGQGTQVTVSS
light: [letters of about 100 residues omitted][letters of about 100 residues omitted]
notes: [VH32]-[CH]-[L]-[3C6 VHH] with [VL-1]-[CL]
Regarding B8, in assay [1], the EC50 was 0.0566 nM. Moreover, in assay [2], the Kd turned out to be 3.7 nM, the dissociation rate constant (koff) was determined as 0.0038 s⁻¹ and the kon was determined as 1e+06 M⁻¹ s⁻¹. Moreover, a half-maximal effect in assay [3] (EC50) was put at 0.0756 nM.

B9: CD3-MSLN bispecific antibody B26 (bispecific antibody, human IgG1, lambda)
heavy: EVQLVESGGGLVQPGGSLRLSCAASGFTFNTYAMNWVRQAPGKGLEWVARIRSKYNNYATYYADSVKDRFTISRDDSKSILYLQMNNLKTEDTAMYYCVRHGNFGNSQVSWFQYWGQGTLVTVSSASTKGPSVFPLAPSSKSTSGGTAALGCLVKDYFPEPVTVSWNSGALTSGVHTFPAVLQSSGLYSLSSVVTVPSSSLGTQTYICNVNHKPSNTKVDKKV[letters of human IgG1 Fc with changes omitted]GGGGSGGGGSEVQLVESGGGLVQAGESLRLSCAVSGNIGSIRHMGWHRQDPGKERELVATITTVGTTYYANFVKGRFTISRDNAKNTVYLQMNSLKPEDTGVYYCRATAHPTDYWGQGTQVTVSS
light: [letters of about 100 residues omitted][letters of about 100 residues omitted]
notes: [VH26]-[CH]-[L]-[3C6 VHH] with [VL-1]-[CL]
B9 registered an EC50 in assay [1] of 0.218 nM. In assay [2], the dissociation constant Kd was 3.1 nM, the koff is 0.005 s⁻¹ and the kon amounted to 1.6e+06 M⁻¹ s⁻¹. Also, the EC50 in assay [3] is 0.339 nM.
